PubChem BioAssay AID624296 (National Center for Advancing Translational Sciences (NCATS), 2012)
The whole screen tested about 350,000 compounds, of which about 9,900 (2.8%) were called active. The shares of active, inactive and inconclusive entries below differ from those in the screen. Calls come from the whole dose curve; as a rule, active = well fitted activation curve with a large enough effect; inconclusive = small, poorly fitted or top-dose-only effect; inactive = no such curve, though single readings can be large or run the other way. No potency is given beside an inconclusive call; the fits are too rough.

Experiment: A quantitative high throughput screen for small molecules that induce DNA re-replication in MCF 10a normal breast cells. For activity, positive = re-replication: % of control where 0% means no effect. Note: nearly all actives have a fitted effect of over 50% in size.
Details: MCF 10A DNA re-replication, Hoechst nuclear intensity, 48 h; activity, positive = re-replication: at 46.1 µM (top of the series)
Potency is the fitted concentration of half-maximal effect; tags give direction and shape of the fitted curve.

Row | SMILES | activity, positive = re-replication | Potency
1 | CCOc1ccc(NC(=O)CN(C)C(=O)CC2CCCC2)cc1OCC | inactive: -1.39% | 
2 | CCOC(=O)c1cc(-c2nnc(SCC(=O)Nc3ccc(F)cc3)o2)c(C)nc1C |  | inconclusive [activator, partial curve, poor fit]
3 | CCN1/C(=C\C(C)=O)Sc2ccc(OC)cc21 | inactive: 26.9% | 
4 | CCOC(=O)C1(CCOc2ccccc2)CCN(Cc2cccc(OC)c2OC)CC1 | inactive: 9.95% | 
5 | CC(=O)NCCC(=O)Nc1cc(S(=O)(=O)N2CCCCC2)ccc1N1CCN(C)CC1 |  | inconclusive [activator, partial curve, poor fit]
6 | O=C(COC(=O)c1ccccc1F)Nc1cccnc1Cl | inactive: -11.8% | 
7 | N#Cc1c2n(c3c(=S)nc[nH]c13)CCCCC2 |  | inconclusive [activator, partial curve, poor fit]
8 | COC(=O)c1oc2ccc(Br)cc2c1NC(=O)CN1CCN(C)CC1 | inactive: -8.51% | 
9 | O=C1NC(c2ccccc2)N=C2Oc3ccccc3C=C12 (stereo not drawn) |  | inconclusive [activator, full curve]
10 | COCCCn1c2nc3ccccc3nc2c2c(=O)n(-c3ccccc3OC)cnc21 | inactive: -1.01% | 
11 | Cc1ccc(C(=O)NCCNC(=O)Cc2ccccc2)cn1 | inactive: 0.794% | 
12 | C[C@H]1CN(S(=O)(=O)c2c(F)cccc2F)CCN1S(=O)(=O)c1ccc2c(c1)OCCO2 | inactive: 2.09% | 
13 | CSc1ccc(/C=C(\C#N)C(=O)Nc2cccc(C)c2)cc1 |  | inconclusive [activator, partial curve, poor fit]
14 | CC1(c2ccc(OCC#N)cc2)C=C(c2ccc(OCC#N)cc2)n2nc(C(F)(F)F)nc2N1 (stereo not drawn) |  | active: 18.4 µM
15 | Cc1cccc(C)c1NC1=NC(=S)N(c2ccccc2)C12CCOC(C)(C)C2 (stereo not drawn) | inactive: 22.8% | 
16 | COc1ccc(CCNC(=O)C(=O)NCc2ccccc2)cc1OC |  | inconclusive [activator, single point]
17 | O=C1c2cccc3c(O)ccc(c23)C(=O)N1Cc1ccco1 |  | inconclusive [activator, single point]
18 | CCOc1ccc(NC(=O)c2sc(N3CCOCC3)nc2-c2ccccc2)cc1 |  | inconclusive [activator, single point]
19 | CCN(CC)CCNC(=O)c1cc2c(=O)n(C)c3ccccc3c2s1 |  | active: 23.1 µM
20 | COC1=NC2=NCCN2C(OC)=N1 | inactive: 0.601% | 
21 | CN1/C(=C/C(=O)c2ccc(Cl)cc2)Sc2cc3c(cc21)OCO3 |  | inconclusive [activator, partial curve]
22 | CC(C)N1CCN(Cc2ccc(-c3ccccc3Cl)o2)CC1CCO (stereo not drawn) |  | inconclusive [activator, single point]
23 | CC(NCC(O)COCCC12CC3CC(CC(C3)C1)C2)c1ccccc1 (stereo not drawn) |  | inconclusive [activator, partial curve, poor fit]
24 | Cc1ccc(C)n1-c1ccc(C(=O)N2CCC(C(N)=O)CC2)cc1 |  | inconclusive [activator, single point]

Row | SMILES | activity, positive = re-replication | Potency
25 | CCCCNC(=S)NNC(=O)c1ccoc1C |  | inconclusive [activator, single point]
26 | CCCc1oc(C(=O)O)cc1CN1CCOCC1 |  | inconclusive [activator, partial curve, poor fit]
27 | O=c1[nH]c(C2CCCN(S(=O)(=O)c3ccccc3)C2)nc2c1nnn2Cc1ccccc1Br (stereo not drawn) |  | inconclusive [activator, single point]
28 | Cc1cccc(NC(=S)N2CCC(c3nc4ccccc4o3)CC2)c1 | inactive: 1.07% | 
29 | C=CCNC(=O)c1ccc2c3n(nc2c1)-c1ccc(Cl)cc1CO3 |  | inconclusive [activator, single point]
30 | COc1ccc(-c2nc3ccccc3c(=O)[nH]2)cc1 | inactive: -11.4% | 
31 | Cc1cc(Nc2cccc(Cl)c2)nc(N2CCOCC2)n1 |  | inconclusive [activator, partial curve, poor fit]
32 | Cc1noc(C)c1C(=O)Nc1nc(C23CC4CC(CC(C4)C2)C3)cs1 |  | inconclusive [activator, single point]
33 | Cc1ccc(C(=O)COC(=O)c2cc(=O)[nH]c3ccccc23)cc1C |  | inconclusive [activator, single point]
34 | O=C(/C=C/c1cc2ccccc2o1)c1ccccc1O |  | inconclusive [activator, single point]
35 | O=C1N[C@@H](Cc2c[nH]c3ccccc23)COC(=O)[C@H](Cc2ccc(F)cc2)C/C=C\C[C@H]1CC(=O)N(CCO)Cc1ccccc1 | inactive: 31.6% | 
36 | CC(C)CN(C(=O)COC(=O)c1ccccc1SCC(=O)N1CCCC1)C1CCS(=O)(=O)C1 (stereo not drawn) | inactive: -5.12% | 
37 | CC1CN(CCOc2ccc(F)cc2)CC(C)O1 (stereo not drawn) | inactive: 7.73% | 
38 | O=C1CCCC2=C1C(c1cccc(O)c1)C1=C(N2)c2ccccc2C1=O (stereo not drawn) | inactive: -23.9% | 
39 | CSCCC(C(=O)N1CC2(C)CC1CC(C)(C)C2)N1C(=O)c2ccccc2C1=O (stereo not drawn) |  | inconclusive [activator, partial curve, poor fit]
40 | O=C(CSc1cccc2cccnc12)Nc1cccc(S(=O)(=O)N2CCOCC2)c1 |  | inconclusive [activator, single point]
41 | Cc1cccc(C)c1-n1c(C)cc(/C=C2\C(=O)NN(c3ccccc3)C2=O)c1C |  | inconclusive [activator, full curve, poor fit]
42 | CCc1nc(C)ccc1OCC(=O)N1CCc2c([nH]c3ccccc23)C1c1ccccn1 (stereo not drawn) | inactive: 2.38% | 
43 | COc1cc(C)c(C(C)C)cc1S(=O)(=O)n1cnc(C)c1 |  | inconclusive [activator, single point]
44 | Cc1nc2cc(Cl)c(Cl)cc2n1-c1ccccn1 | inactive: -9.22% | 
45 | O=C(CNC(=O)c1ccco1)OCC(=O)c1cccc2ccccc12 | inactive: -4.21% | 
46 | COc1ccc(/C=c2\s/c(=C\C(=O)C(C)(C)C)[nH]c2=O)cc1O |  | inconclusive [activator, partial curve, poor fit]
47 | c1cncc(-c2noc(-c3cccc4ccccc34)n2)c1 | inactive: 2.45% | 
48 | O=C(/C=C/c1ccc(S(=O)(=O)N2CCOCC2)cc1)NC(=S)Nc1ccc(N2CCOCC2)cc1 | inactive: -0.848% | 
